# This is one part of the list. Antibody binding of pooled human sera (four to six donors per pool; dilution not stated) to peptides of the Trypanosoma cruzi antigen TSSA on microarrays. Quantile-normalised fluorescence in arbitrary units, mean of duplicate arrays; higher = more binding. No active / inactive call. The uninfected pools are read here as the healthy donors of the same country. The strongest signals lie near the top of the scale (about 60,000).
# Legend:
# Assay in all cases: antibody binding signal (normalised fluorescence) (arbitrary fluorescence units); higher = stronger serum antibody binding to peptide
# [1] = test system: pooled sera of chronic Chagas disease patients, Argentina
# Experimental: (§1)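 Microarray of 15-residue peptides over residues 30-55 of Trypanosoma cruzi TSSAII, each with 1 to 10 substitutions at naturally variable positions, probed with one serum pool per country.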
# [2] = test system: pooled sera of chronic Chagas disease patients, Bolivia
# Experimental: as §1
# [3] = test system: pooled sera of chronic Chagas disease patients, Brazil
# Experimental: as §1
# [4] = test system: pooled sera of chronic Chagas disease patients, Colombia
# Experimental: as §1
# [5] = test system: pooled sera of chronic Chagas disease patients, Mexico
# Experimental: as §1
# [6] = test system: pooled sera of chronic Chagas disease patients, USA
# Experimental: as §1
# [7] = test system: pooled sera of uninfected people, Argentina
# Experimental: as §1
# [8] = test system: pooled sera of uninfected people, Bolivia
# Experimental: as §1
# [9] = test system: pooled sera of uninfected people, Brazil
# Experimental: as §1
# [10] = test system: pooled sera of uninfected people, Colombia
# Experimental: as §1
# [11] = test system: pooled sera of uninfected people, Mexico
# Experimental: as §1
# [12] = test system: pooled sera of uninfected people, USA
# Experimental: as §1
Sequence,antibody binding signal [1],antibody binding signal [2],antibody binding signal [3],antibody binding signal [4],antibody binding signal [5],antibody binding signal [6],antibody binding signal [7],antibody binding signal [8],antibody binding signal [9],antibody binding signal [10],antibody binding signal [11],antibody binding signal [12]
GTEKKAATGEAPSPS,24800,32700,26400,1150,1890,25100,582,823,161,586,136,203
GTEKKPAAGGAPSQS,1410,221,481,4010,1970,1180,187,796,831,98,334,1380
GKDNKTAAGEAPSQP,5390,15000,35700,3370,1960,6300,257,274,163,230,113,150
TPPSGKENKTATGET,21900,10600,3290,546,2970,2480,1010,1110,216,768,176,178
TDKKTAAGEAPSQSG,591,12000,4820,441,338,6150,175,355,284,973,199,135
KAATGETPSQPGASS,7070,5280,41300,202,165,9250,159,1130,320,204,175,259
GKEKKPAAGEAPSQP,7940,5020,30800,3210,3410,11900,113,86.6,92.1,81.8,82.6,275
GKDNKPAAGGTPSQS,559,229,511,1310,1850,1020,252,459,388,193,187,98.6
ISTPPSGTDKKPATG,38300,5370,42800,12100,50300,11600,1090,956,202,244,2810,426
KPATGGAPSQPGASS,813,4920,16600,234,352,816,311,919,145,100,136,182
KDKKPAAGGTPSPSG,181,234,158,1480,129,393,102,85.5,545,134,82.1,107
STPPSGKDKKPAAGE,25300,4640,14700,331,48300,4390,1300,346,124,316,121,109
PPSGKDKKTAAGEAP,968,995,1060,1360,34800,2340,295,614,95.3,393,93.8,99.3
GKENKAATGGTPSQS,4910,1120,11100,9820,7480,17700,324,91,167,129,209,131
GTDNKTAAGEAPSQP,5340,28900,41200,211,249,7340,165,513,1410,168,119,144
KKPATGGTPSQSGAS,383,321,258,396,335,181,339,254,340,136,238,312
GKDNKAAAGETPSPP,2110,337,5870,4720,5990,2860,221,449,98,153,135,262
KDNKTAAGGTPSQSG,869,201,237,3230,224,1580,423,174,334,168,278,155
DKKPATGGAPSQSGA,1180,589,906,1650,1050,1190,410,860,132,131,126,148
DKKAATGETPSQSGA,2230,1580,16800,162,252,10200,356,195,211,695,206,186
GKDKKPAAGEAPSPP,2470,534,8250,3950,3800,12100,121,73.4,107,112,75.8,89.4
KENKPATGETPSPSG,41300,31300,34900,339,703,26800,325,570,253,181,1850,2540
GKENKTAAGEAPSQP,8390,8330,37200,8110,6620,20800,413,207,130,173,147,150
ENKAATGGTPSQSGA,437,2080,602,728,436,389,285,145,736,212,331,165
KKTATGGAPSQPGAS,934,259,383,994,350,311,322,138,110,88.9,129,235

Sequence,antibody binding signal [1],antibody binding signal [2],antibody binding signal [3],antibody binding signal [4],antibody binding signal [5],antibody binding signal [6],antibody binding signal [7],antibody binding signal [8],antibody binding signal [9],antibody binding signal [10],antibody binding signal [11],antibody binding signal [12]
DKKAATGGTPSQPGA,557,697,975,1700,590,1100,454,125,739,1040,496,286
TPPSGTENKTATGEA,42100,38100,44400,169,1510,18200,1730,221,326,269,217,143
GTEKKPAAGGTPSQP,799,199,582,6100,1060,1180,253,851,2750,140,1270,1060
PPSGKEKKPATGETP,33200,4940,14800,2080,7500,15600,562,1100,123,410,1390,340
TPPSGKDKKTAAGGT,1770,326,549,2360,38000,1750,117,289,521,168,86.7,109
SSTPPSGKDNKPAAG,40400,16900,30600,305,41800,13900,541,1240,230,256,423,347
NKAAAGGAPSQSGAS,445,199,1840,4270,876,461,838,1190,275,315,715,1050
PSGKDNKTATGGAPS,2460,854,2180,5480,4160,3410,297,153,132,160,106,144
KEKKTAAGEAPSQSG,149,1260,549,312,190,3080,136,116,98.7,389,80.8,97.1
SGTEKKAAAGGTPSQ,956,368,930,9640,1220,2370,155,554,1330,186,142,207
GTEKKTATGGTPSPS,1010,547,725,4430,1160,1920,249,594,348,772,186,144
SGKENKTAAGGTPSP,3800,732,20000,10000,4540,20700,4660,946,335,402,683,237
GKENKAAAGGAPSQS,1770,1170,6500,6240,4890,9970,425,87.2,137,111,114,133
TSSTPPSGTDKKPAA,40200,15700,45500,12900,51300,11700,1960,247,202,329,2820,562
DKKPATGGTPSQSGA,729,391,553,1280,703,668,340,281,756,297,157,180
TPPSGKEKKAATGGA,10300,217,758,1670,6100,1340,327,423,99,276,80.6,244
TPPSGKDNKPATGEA,29700,22500,36700,491,19900,23500,550,922,198,241,360,336
ENKAAAGETPSPSGA,490,520,8190,323,242,3310,176,201,113,86.5,178,712
NKAATGGAPSPSGAS,698,355,6360,573,669,1380,758,732,288,281,186,1100
ENKAATGETPSQSGA,4280,4690,27800,211,169,13600,137,218,191,116,189,146
GKDNKPAAGGAPSPS,258,194,925,877,610,617,232,448,92.2,124,127,114
DNKPATGEAPSQSGA,44700,48500,49900,247,183,43000,923,505,435,147,215,120
ISTPPSGTDKKPAAG,44300,24700,46800,12800,42900,12500,1450,681,326,267,4950,809
GKDNKAATGGTPSQP,851,256,1930,1550,1570,1190,280,202,133,249,303,80
TPPSGKEKKTATGGA,10100,204,433,1450,7040,1010,376,273,104,160,107,154

# From the supplement of paper PMC10441789
